# The other results are listed elsewhere or left out. The list includes weakly bound sequences.
# Target: T1, MBP-FoxP3dN (UniProt Q99JB6)
# T1 sequence: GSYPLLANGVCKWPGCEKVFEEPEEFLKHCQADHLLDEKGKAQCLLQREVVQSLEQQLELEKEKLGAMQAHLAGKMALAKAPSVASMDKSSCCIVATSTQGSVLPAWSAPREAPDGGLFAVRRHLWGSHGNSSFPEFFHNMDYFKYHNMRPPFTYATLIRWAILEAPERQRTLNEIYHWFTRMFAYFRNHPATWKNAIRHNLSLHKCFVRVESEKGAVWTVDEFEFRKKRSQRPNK
# Assay: PD-seq (MBP pull-down with sequencing)
# Conditions: 20 mM Tris-HCl pH 7.5, 100 mM NaCl, 1.5 mM MgCl2, 0.4 uM protein, 0.1 uM dsDNA library, 30 min, room temperature, amylose pull-down; high values mean tight binding; double strand, one strand shown
row,Sequence,binding signal (RPM ratio (pull-down/input))
1,GATGATTGTTCTCCCAGCTGATGAATTCCAGAGCTCGAGTAAACAAATTTTCCTAATCTTTCTGTTCAAGCGCCATCTAC,0.185
2,GATGATTGTTCTCCCAGCTGATGAATTGCCAATCTCGAGTAAACAAATTTTCCTAATCTTTCTGTTCAAGCGCCATCTAC,0.57
3,GATGATTGTTCTCCCAGCTGATGAATTACGTCTCTCGAGTAAACAAATTTTCCTAATCTTTCTGTTCAAGCGCCATCTAC,0.945
4,GATGATTGTTCTCCCAGCTGATGAATTGTGCCTCTCGAGTAAACAAATTTTCCTAATCTTTCTGTTCAAGCGCCATCTAC,6.79
5,GATGATTGTTCTCCCAGCTGATGAATTCGAATTATCGAGTAAACAAATTTTCCTAATCTTTCTGTTCAAGCGCCATCTAC,0.752
6,GATGATTGTTCTCCCAGCTGATGAATTAGAGCCTTCGAGTAAACAAATTTTCCTAATCTTTCTGTTCAAGCGCCATCTAC,1.74
7,GATGATTGTTCTCCCAGCTGATGAATTAGTCGAATCGAGTAAACAAATTTTCCTAATCTTTCTGTTCAAGCGCCATCTAC,0.354
8,GATGATTGTTCTCCCAGCTGATGAATTTCATTAATCGAGTAAACAAATTTTCCTAATCTTTCTGTTCAAGCGCCATCTAC,0.25
9,GATGATTGTTCTCCCAGCTGATGAATTGCCTGACTCGAGTAAACAAATTTTCCTAATCTTTCTGTTCAAGCGCCATCTAC,0.488
10,GATGATTGTTCTCCCAGCTGATGAATTAACATGTTCGAGTAAACAAATTTTCCTAATCTTTCTGTTCAAGCGCCATCTAC,0.574
11,GATGATTGTTCTCCCAGCTGATGAATTTCTTAGATCGAGTAAACAAATTTTCCTAATCTTTCTGTTCAAGCGCCATCTAC,0.188
12,GATGATTGTTCTCCCAGCTGATGAATTTGCTTTATCGAGTAAACAAATTTTCCTAATCTTTCTGTTCAAGCGCCATCTAC,3.94
13,GATGATTGTTCTCCCAGCTGATGAATTTCGGGTTTCGAGTAAACAAATTTTCCTAATCTTTCTGTTCAAGCGCCATCTAC,0.597
14,GATGATTGTTCTCCCAGCTGATGAATTACTTCCGTCGAGTAAACAAATTTTCCTAATCTTTCTGTTCAAGCGCCATCTAC,0.226
15,GATGATTGTTCTCCCAGCTGATGAATTGATGCCCTCGAGTAAACAAATTTTCCTAATCTTTCTGTTCAAGCGCCATCTAC,1.85
16,GATGATTGTTCTCCCAGCTGATGAATTATTTTCGTCGAGTAAACAAATTTTCCTAATCTTTCTGTTCAAGCGCCATCTAC,0.869
17,GATGATTGTTCTCCCAGCTGATGAATTAATAGCATCGAGTAAACAAATTTTCCTAATCTTTCTGTTCAAGCGCCATCTAC,1.2
18,GATGATTGTTCTCCCAGCTGATGAATTCTTCATCTCGAGTAAACAAATTTTCCTAATCTTTCTGTTCAAGCGCCATCTAC,0.286
19,GATGATTGTTCTCCCAGCTGATGAATTGAAAGGTTCGAGTAAACAAATTTTCCTAATCTTTCTGTTCAAGCGCCATCTAC,0.22
20,GATGATTGTTCTCCCAGCTGATGAATTTAGCATTTCGAGTAAACAAATTTTCCTAATCTTTCTGTTCAAGCGCCATCTAC,6.35
21,GATGATTGTTCTCCCAGCTGATGAATTACGCTAATCGAGTAAACAAATTTTCCTAATCTTTCTGTTCAAGCGCCATCTAC,0.434

row,Sequence,binding signal (RPM ratio (pull-down/input))
1,GATGATTGTTCTCCCAGCTGATGAATTCTAATGTTCGAGTAAACAAATTTTCCTAATCTTTCTGTTCAAGCGCCATCTAC,1.19
2,GATGATTGTTCTCCCAGCTGATGAATTCCGGTATTCGAGTAAACAAATTTTCCTAATCTTTCTGTTCAAGCGCCATCTAC,0.909
3,GATGATTGTTCTCCCAGCTGATGAATTTTTGGCCTCGAGTAAACAAATTTTCCTAATCTTTCTGTTCAAGCGCCATCTAC,0.38
4,GATGATTGTTCTCCCAGCTGATGAATTTAATCTGTCGAGTAAACAAATTTTCCTAATCTTTCTGTTCAAGCGCCATCTAC,0.341
5,GATGATTGTTCTCCCAGCTGATGAATTCAAATCGTCGAGTAAACAAATTTTCCTAATCTTTCTGTTCAAGCGCCATCTAC,0.322
6,GATGATTGTTCTCCCAGCTGATGAATTGTGATATTCGAGTAAACAAATTTTCCTAATCTTTCTGTTCAAGCGCCATCTAC,3.33
7,GATGATTGTTCTCCCAGCTGATGAATTGGCCGGATCGAGTAAACAAATTTTCCTAATCTTTCTGTTCAAGCGCCATCTAC,0.187
8,GATGATTGTTCTCCCAGCTGATGAATTAACTCGTTCGAGTAAACAAATTTTCCTAATCTTTCTGTTCAAGCGCCATCTAC,0.315
9,GATGATTGTTCTCCCAGCTGATGAATTGATCTGTTCGAGTAAACAAATTTTCCTAATCTTTCTGTTCAAGCGCCATCTAC,0.343
10,GATGATTGTTCTCCCAGCTGATGAATTACTTAAATCGAGTAAACAAATTTTCCTAATCTTTCTGTTCAAGCGCCATCTAC,0.263
11,GATGATTGTTCTCCCAGCTGATGAATTAGGAACTTCGAGTAAACAAATTTTCCTAATCTTTCTGTTCAAGCGCCATCTAC,0.262
12,GATGATTGTTCTCCCAGCTGATGAATTATCAAGGTCGAGTAAACAAATTTTCCTAATCTTTCTGTTCAAGCGCCATCTAC,0.195
13,GATGATTGTTCTCCCAGCTGATGAATTCCGCGCCTCGAGTAAACAAATTTTCCTAATCTTTCTGTTCAAGCGCCATCTAC,1.68
14,GATGATTGTTCTCCCAGCTGATGAATTGCTCATCTCGAGTAAACAAATTTTCCTAATCTTTCTGTTCAAGCGCCATCTAC,0.647
15,GATGATTGTTCTCCCAGCTGATGAATTTCAAAGATCGAGTAAACAAATTTTCCTAATCTTTCTGTTCAAGCGCCATCTAC,0.164
16,GATGATTGTTCTCCCAGCTGATGAATTAAATCAATCGAGTAAACAAATTTTCCTAATCTTTCTGTTCAAGCGCCATCTAC,0.351
17,GATGATTGTTCTCCCAGCTGATGAATTACCCGTATCGAGTAAACAAATTTTCCTAATCTTTCTGTTCAAGCGCCATCTAC,0.4
18,GATGATTGTTCTCCCAGCTGATGAATTGTTTGTCTCGAGTAAACAAATTTTCCTAATCTTTCTGTTCAAGCGCCATCTAC,7.63
19,GATGATTGTTCTCCCAGCTGATGAATTTGCTCCTTCGAGTAAACAAATTTTCCTAATCTTTCTGTTCAAGCGCCATCTAC,0.486
20,GATGATTGTTCTCCCAGCTGATGAATTTGTGGTCTCGAGTAAACAAATTTTCCTAATCTTTCTGTTCAAGCGCCATCTAC,5.25
21,GATGATTGTTCTCCCAGCTGATGAATTGATCTAATCGAGTAAACAAATTTTCCTAATCTTTCTGTTCAAGCGCCATCTAC,0.356

row,Sequence,binding signal (RPM ratio (pull-down/input))
1,GATGATTGTTCTCCCAGCTGATGAATTTCCTCTGTCGAGTAAACAAATTTTCCTAATCTTTCTGTTCAAGCGCCATCTAC,0.238
2,GATGATTGTTCTCCCAGCTGATGAATTTGACGCTTCGAGTAAACAAATTTTCCTAATCTTTCTGTTCAAGCGCCATCTAC,0.832
3,GATGATTGTTCTCCCAGCTGATGAATTTCAACGATCGAGTAAACAAATTTTCCTAATCTTTCTGTTCAAGCGCCATCTAC,0.284
4,GATGATTGTTCTCCCAGCTGATGAATTCAACTCTTCGAGTAAACAAATTTTCCTAATCTTTCTGTTCAAGCGCCATCTAC,0.347
5,GATGATTGTTCTCCCAGCTGATGAATTTGCCCGTTCGAGTAAACAAATTTTCCTAATCTTTCTGTTCAAGCGCCATCTAC,0.401
6,GATGATTGTTCTCCCAGCTGATGAATTGCTCCCGTCGAGTAAACAAATTTTCCTAATCTTTCTGTTCAAGCGCCATCTAC,0.384
7,GATGATTGTTCTCCCAGCTGATGAATTGATCTGGTCGAGTAAACAAATTTTCCTAATCTTTCTGTTCAAGCGCCATCTAC,0.213
8,GATGATTGTTCTCCCAGCTGATGAATTCCGAACATCGAGTAAACAAATTTTCCTAATCTTTCTGTTCAAGCGCCATCTAC,0.379
9,GATGATTGTTCTCCCAGCTGATGAATTATTTTTATCGAGTAAACAAATTTTCCTAATCTTTCTGTTCAAGCGCCATCTAC,0.78
10,GATGATTGTTCTCCCAGCTGATGAATTAAATCTGTCGAGTAAACAAATTTTCCTAATCTTTCTGTTCAAGCGCCATCTAC,0.199
11,GATGATTGTTCTCCCAGCTGATGAATTCTCCTGATCGAGTAAACAAATTTTCCTAATCTTTCTGTTCAAGCGCCATCTAC,0.173
12,GATGATTGTTCTCCCAGCTGATGAATTCAAAGACTCGAGTAAACAAATTTTCCTAATCTTTCTGTTCAAGCGCCATCTAC,0.199
13,GATGATTGTTCTCCCAGCTGATGAATTTCCAAGATCGAGTAAACAAATTTTCCTAATCTTTCTGTTCAAGCGCCATCTAC,0.153
14,GATGATTGTTCTCCCAGCTGATGAATTCGCATTGTCGAGTAAACAAATTTTCCTAATCTTTCTGTTCAAGCGCCATCTAC,3.91
15,GATGATTGTTCTCCCAGCTGATGAATTATGATACTCGAGTAAACAAATTTTCCTAATCTTTCTGTTCAAGCGCCATCTAC,1.28
16,GATGATTGTTCTCCCAGCTGATGAATTGTATGCTTCGAGTAAACAAATTTTCCTAATCTTTCTGTTCAAGCGCCATCTAC,2.53
17,GATGATTGTTCTCCCAGCTGATGAATTTGAGCCATCGAGTAAACAAATTTTCCTAATCTTTCTGTTCAAGCGCCATCTAC,1.25
18,GATGATTGTTCTCCCAGCTGATGAATTTTCGGATTCGAGTAAACAAATTTTCCTAATCTTTCTGTTCAAGCGCCATCTAC,0.274
19,GATGATTGTTCTCCCAGCTGATGAATTGATGGAGTCGAGTAAACAAATTTTCCTAATCTTTCTGTTCAAGCGCCATCTAC,0.352
20,GATGATTGTTCTCCCAGCTGATGAATTGGGATACTCGAGTAAACAAATTTTCCTAATCTTTCTGTTCAAGCGCCATCTAC,0.733
21,GATGATTGTTCTCCCAGCTGATGAATTGCGAATTTCGAGTAAACAAATTTTCCTAATCTTTCTGTTCAAGCGCCATCTAC,2.18

# From article PMC12820563
